The full ranking holds about 33,000 sequences; the median of “E-score (-0.5 to 0.5)” is about -0.017, and the highest 2% start at about 0.3. The list shows a part of the results.
Each sequence was assayed against T1, Sut1 (UniProt P53032) (assay: PBM E-score (8-mer binding enrichment) (E-score (-0.5 to 0.5)); higher = stronger / more preferred TF binding; most listed sequences are background and not binding sites). Conditions: protein concentration: 200 nM; construct: GST-full length.
T1 sequence: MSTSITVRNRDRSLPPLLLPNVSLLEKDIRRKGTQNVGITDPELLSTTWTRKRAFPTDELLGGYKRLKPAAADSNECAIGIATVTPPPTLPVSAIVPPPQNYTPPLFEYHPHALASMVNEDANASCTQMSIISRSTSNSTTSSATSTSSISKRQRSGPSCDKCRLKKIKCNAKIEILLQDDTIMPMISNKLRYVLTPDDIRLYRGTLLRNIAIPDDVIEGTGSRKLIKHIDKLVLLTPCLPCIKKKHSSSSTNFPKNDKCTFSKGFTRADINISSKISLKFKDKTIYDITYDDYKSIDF
Outline: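 Using PURExpress in vitro transcription/translation, GST-tagged yeast transcription factors were made in full-length or DNA-binding-domain form. These were applied at about 100-200 nM to double-stranded universal all-10-mer Agilent arrays, and bound protein was detected with fluorescent anti-GST. Scans were normalised with masliner before the Universal PBM Analysis Suite assigned E-scores to ungapped eight-base words pooled with their reverse complements.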

Sequence	PBM E-score
TTGAACAA	-0.00206
AGACCGTA	-0.0895
CTCACTTA	0.0144
ATGACGCG	-0.0417
AACTGTCC	0.00966
CACGTGGA	-0.201
CGCCCTAG	-0.161
ATTTATCA	0.229
AGGCCCGA	-0.118
TGATTGAA	0.112
CTCGTAAA	-0.0229
CATGTTTC	0.0985
ACGAAAGA	0.159
GGAACGCA	-0.154
ATAACGAG	0.151
GGACTCAA	0.172
CACTTAGA	0.0399
CGTTACAA	0.0868
GTAACAGA	0.147
AGTTAGCG	0.0376
CCCGCGAC	-0.257
CAAGCCCC	-0.159
GAGCGGCA	-0.195
ACTAGCTG	-0.273
AACCCAAA	0.0168

Sequence	PBM E-score
ATATAAAT	0.325
CAGTGACA	-0.0609
TGTTGCAA	0.278
ATAGAGAG	-0.172
TATGAGCA	-0.0712
CCATGCAC	-0.0329
GGGGACCA	-0.328
AGTGTTCC	0.105
CACCGAGC	0.128
GGTATACC	0.00067
ACTTTTCC	0.27
GCTGAGAA	0.00666
AGCATGTA	-0.0201
CGTTATTC	0.0871
GAATTCGA	0.0801
CTTATGAC	0.0351
AATCCTGT	0.00205
CGATTATA	0.125
AGCGGTGG	-0.0886
CAAGCTCA	-0.164
AAGTCCTC	0.0867
CGAAGTTA	0.0358
CTCTCTTA	0.0682
AAAGCGGC	0.184
AGTGCTCA	-0.105

Sequence	PBM E-score
AGACGTGG	-0.203
ACTTTAAA	0.269
GAGCCAGC	-0.262
GTGTTCAA	0.127
CGAATAAC	0.13
ACCGAGGT	0.0263
CCCCCGAC	-0.288
CCTCACCG	-0.113
GAAATACA	0.0868
GTGGTCAA	-0.0216
CGAGATAC	0.2
AGTGGGCA	-0.0542
AGTCCACC	-0.0698
CTCTGGGA	-0.301
AAGAAGAG	0.0502
TGTACTAA	0.164
GCGACGCA	-0.178
CGTGTCTA	-0.178
GCGTGGAC	-0.234
ACCATGGA	-0.184
ACGCGAAC	-0.134
AGCTTTTA	0.0431
CGGGCTAC	-0.0584
CTAACTGA	0.0767
GATCAATA	0.0565

Sequence	PBM E-score
ATAATTCG	0.101
CAAGTAGC	-0.181
CGTCCACG	-0.127
AGAAACTA	0.0533
CTCAGCTA	-0.13
TATGAGAA	0.141
AGGAACAT	0.0288
CGGTGCAA	-0.00847
ACCAAGTC	0.166
CTCACCAG	-0.0993
TGCCGCAA	-0.0982
ACGTACCT	-0.195
CCTCACGC	-0.0319
CAATTCAC	0.182
TGAGCACA	-0.0427
AATTCCGT	0.317
CCCCGACA	0.0397
ACGCATGA	-0.138
AGCAGGCG	-0.211
CGGGCCGC	-0.246
GACGTTGA	0.0656
GCACAGGC	-0.0466
CAGACGGC	-0.269
TACAAAAA	0.268
AACATTAG	0.0473

Sequence	PBM E-score
CGTCACAC	-0.00776
CAGCAGGG	-0.27
CCCTCCAC	-0.0582
CGTGACTC	-0.117
ATCAAAAA	0.196
GATATCCA	0.0613
ATAAGACG	-0.0616
TATCCTGA	0.0955
ACCGCGCG	0.101
ACGGGTCC	0.00301
ACAACTGG	-0.169
TTCTAGAA	0.0328
ACATCTCA	0.0619
ATTACCAG	-0.0573
ATCGAACC	-0.0351
ACAACTCG	0.0329
ACAGTACC	-0.085
AGCATACC	-0.046
CAGGCATC	-0.164
CCAAAAGC	-0.0769
AGGATTAT	-0.0525
GCCTTATA	-0.0334
AATGATCT	-0.0167
CGGATGGA	0.0349
CCTTATAA	0.217

Sequence	PBM E-score
CGTCAAAG	-0.095
CGAAAACG	0.00882
CATTCATC	-0.0281
GTGTGGGA	-0.0973
TCAGCGGA	0.113
AATATGTG	0.0989
CACAGTCA	-0.229
ACGTACCC	-0.0772
CATTTACC	0.127
AGCATGAG	-0.0431
CGTTTCAG	0.171
CGAGTATC	-0.101
GCGCCAGC	-0.257
CAACCAGC	-0.0595
ATCCCGGA	0.328
ACAGGGGG	-0.258
AAATGGAT	0.0439
AGGAGCGC	-0.116
GGCTGATA	-0.105
GAATTACC	0.00994
GGCTGCCC	-0.159
GTACGGAC	0.297
ACGAGCGG	-0.11
CCGGTTGA	0.151
ATTTCTCG	0.268

Sequence	PBM E-score
GGGGATTA	0.0121
TGCAAAAA	0.175
ATCGTGGC	-0.0298
AATAGCAT	0.136
AGCTCTGA	-0.104
AGACGACC	-0.056
AATTCTCA	0.131
AGCGACCT	-0.0631
GCTAGTCC	0.145
AAAGAAAG	0.249
GAAACAAA	0.321
CTAGCTAG	0.132
CGATGCGA	-0.0438
AGGTGGAG	0.0604
AACCGCGC	0.11
GAAGTTCA	0.0798
AACCAGGT	-0.308
ACTTTCGC	0.019
AGGGCCGC	-0.158
ACGCATCC	-0.199
CAGCGTGG	-0.176
CCTTTTGA	0.0755

Reference: the supplement of paper PMC3334620
